Results as given in PubChem BioAssay AID2546 (National Center for Advancing Translational Sciences (NCATS), 2010).
In all, about 310,000 compounds went through this assay and about 11,000 (3.5%) were called active. The inconclusive results got no clear call from the source; some entries with a clear call stand among them for comparison. The call rests on the fitted dose curve; in most records, active means well fitted inhibition curve with a large enough effect; inconclusive means small, poorly fitted or top-dose-only effect, or effect the other way; inactive means flat fitted curve, though single readings scatter. No potency is given beside an inconclusive call; the fits are too rough.

assay: VP16 counterscreen qHTS for inhibitors of ROR gamma transcriptional activity; details: Drosophila S2 Gal4-VP16 UAS-luciferase, luminescence, 20 h; series mostly up to 53.6 µM;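 further: Gal4-VP16 expression switched on by copper sulfate through the metallothionein promoter; nearly all actives have a fitted effect of over 50% in size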
Potency means the concentration at half of the fitted maximal effect; tags describe the fitted curve by direction and shape.

Structure (SMILES)	Potency
N=c1c2c(-c3ccccc3)c(-c3ccccc3)n(Cc3ccco3)c2ncn1Cc1ccco1	active: 28.2 µM
Clc1ccc(CNc2ccccn2)cc1	inconclusive [activator, full curve, poor fit]
O=C(N/N=C/c1ccncc1)c1sc2ccccc2c1Cl	inconclusive [inhibitor, single point]
O=c1c(O)c(-c2ccccc2)oc2cccc(O)c12	active: 7.94 µM
Cc1cc(/C=C\c2ccc3cc(N(C)C)ccc3[n+]2C)c(C)n1-c1ccccc1	active: 2.82 µM
CCCC(=O)Nc1ccc(Cl)c(NC(=S)NC(=O)c2cc3ccccc3o2)c1	inconclusive [inhibitor, full curve]
C/C(CC(=O)Nc1ccc(Cl)c(C(F)(F)F)c1)=N\NC(=O)c1ccccc1O	inconclusive [inhibitor, single point]
CC1CN(C(=S)NC(=O)c2ccc(Cl)cc2)CC(C)O1 (stereo not given)	active: 0.794 µM
O=C(COc1ccccc1F)N/N=C1\CCCc2ccccc21	inconclusive [inhibitor, single point]
Cc1cnc(NCCc2ccccc2)s1	inconclusive [inhibitor, single point]
Cc1cc(NCc2ccco2)n2ncnc2n1	inactive
Cc1onc(-c2ccccc2)c1C(=O)NC(=S)NNC(=O)c1ccncc1	inconclusive [inhibitor, single point]
CC(=O)c1c(O)c2ccccc2n(Cc2ccccc2)c1=O	inconclusive [inhibitor, partial curve, poor fit]
O=C(NCc1nc(-c2ccc(C(F)(F)F)cc2)no1)Nc1cc(Cl)cc(Cl)c1	inconclusive [inhibitor, single point]
Cc1cc(C(=O)NNC(=S)NC(=O)/C=C/c2ccccc2Cl)n[nH]1	active: 12.6 µM
CS(=O)(=O)c1nc(-c2cccs2)cc(C(F)(F)F)n1	active: 4.47 µM
Cc1ccccc1NC(=O)CN1C(=S)NC(C)(C)CC1C (stereo not given)	inconclusive [inhibitor, single point]
Cn1c2ccccc2c2cc(/C=N/NC(=O)c3cc(O)ccc3O)ccc21	inconclusive [inhibitor, single point]
CC(C)Cc1cc(C(=O)Nc2cc(Br)ccc2O)no1	inconclusive [inhibitor, single point]
COc1ccc(C(C(=O)NC(C)(C)C)N(CCc2ccccc2)C(=O)CCC(=O)Nc2cc(C)on2)cc1 (stereo not given)	inactive
COc1cc(/C=N/NC(=O)c2ccccc2O)ccc1OCC(=O)Nc1ccccc1	inconclusive [inhibitor, single point]
Cc1cc(/C=C(\C#N)c2nnc(N3CCOCC3)n2-c2ccccc2)c(C)n1-c1ccccc1	inactive
COc1ccc(NC(=O)N2CCc3ccccc32)cc1	inconclusive [inhibitor, partial curve]
N/C(=N\OC(=O)c1cccc(Br)c1)c1ccccn1	active: 17.8 µM
COc1ccc(C(=O)N2CCC3(CC2)CN(c2ccccc2)C3)cc1	inconclusive [inhibitor, partial curve]

Structure (SMILES)	Potency
CCn1cc(CN2CCC(n3nccc3NC(=O)c3ccc4c(c3)OCO4)CC2)c(C)n1	inconclusive [inhibitor, single point]
Cn1c(N/N=C/c2c[nH]c3ccccc23)nc2ccccc21	active: 3.98 µM
CCN(CC)S(=O)(=O)N1CCC(C(=O)NCc2ccc(C)cc2)CC1	inactive
Cc1nc(-c2ccc(S(=O)(=O)NCc3cccnc3)s2)cs1	inconclusive [inhibitor, single point]
Cc1cc(Cn2ccnc2)c(C)cc1Cn1ccnc1	inactive
CCOc1ccc(/C=N/NC(=O)c2nnn(-c3nonc3N)c2-c2ccc(OCC)cc2)cc1	inconclusive [inhibitor, single point]
CCOC(=O)Cc1csc(NC(=S)NC(=O)c2cc(OC)cc(OC)c2)n1	inconclusive [inhibitor, single point]
CCNC(=S)Nc1ccc(Cc2nc3ccccc3[nH]2)cc1	inactive
O=C(O)C1CC(=O)N(c2ccc(OCc3ccc(Cl)cc3Cl)cc2)C1 (stereo not given)	inconclusive [inhibitor, partial curve]
Cn1c(CCN2CCCCC2)nc2cc(NS(=O)(=O)c3ccc(Cl)cc3)ccc21	inconclusive [inhibitor, single point]
O=C(O)c1ccc(COc2ccc3c(c2)CCC3)cc1	inconclusive [inhibitor, single point]
CN(C)c1ccc(N=Nc2ccccc2Br)cc1	inconclusive [inhibitor, single point]
Cc1cc(/C=N/n2cnnc2)c(C)n1-c1ccc(OCc2ccc(Cl)cc2Cl)cc1	active: 11.2 µM
CC(=O)c1cc2c(cc1NC(=O)c1cc(C)nn1-c1ccccc1)OCO2	inactive
CCCC[C@@H]1C[C@H]1C(NC(=O)c1cccnc1)c1ccc(-c2ccccc2)cc1 (stereo not given in full)	inconclusive [inhibitor, single point]
Cc1cccc(-n2c(=O)c3c4c(sc3n3c(=S)[nH]nc23)CCC4)c1	inconclusive [inhibitor, single point]
CCCn1c(SCC(=O)NC)nc2sc3c(c2c1=O)CCC3	inactive
Cc1cccc(C)c1NC(=S)NCCc1ccc(O)c(O)c1	inconclusive [inhibitor, single point]
Cc1ccc(S(=O)(=O)c2cn(C)c3cc(N4CCN(C)CC4)c(F)cc3c2=O)c(C)c1	inconclusive [inhibitor, single point]
CCN(CC)S(=O)(=O)c1cccc(C(=O)Nc2nnc(C)s2)c1	inconclusive [inhibitor, single point]
COC(=O)c1cccc(NC(=O)c2onc3c2CCCC3)c1	inconclusive [inhibitor, single point]
CCCC(=O)NC(=S)Nc1ccc(NC(=O)c2cccs2)cc1	inconclusive [inhibitor, single point]
O=S1(=O)CC=C(CSC(=S)NC2CCS(=O)(=O)C2)C1 (stereo not given)	inactive
COc1ccc(-c2cc(C(=O)Nc3cc(OC)cc(C(=O)Nc4cccc(C(F)(F)F)c4)c3)[nH]n2)cc1	inactive
COc1ccccc1NS(=O)(=O)c1cc2c(cc1C)NC(=O)CO2	inactive

Structure (SMILES)	Potency
O=C1C2C3C=CC(CO)(O3)C2C(=O)N1c1ccccc1-c1ccccc1 (stereo not given)	active: 2.24 µM
CCCn1c(C)cc(C(=O)COC(=O)c2nccnc2N)c1C	inconclusive [inhibitor, single point]
CCOC(=O)c1ccc(NS(=O)(=O)c2ccc3[nH]c(=O)[nH]c3c2)cc1	inactive
COc1cc(CNc2ccc(CNc3ncn[nH]3)cc2)cc(Cl)c1OCc1ccccc1	inactive
O=C(CNc1ccc2c(c1)OCO2)N/N=C\c1cn(Cc2ccccc2)c2ccccc12	inconclusive [inhibitor, single point]
O=C(c1ccc(Cl)cc1)c1ccc(OCC(=O)N2CCOCC2)cc1	active: 11.2 µM
CN(Cc1ccc(Cl)cc1)C(=O)CCl	inconclusive [inhibitor, single point]
Oc1ccccc1N=Cc1c(O)ccc2ccccc12	inconclusive [inhibitor, single point]
Cc1ccc2c(CN3CCC(C(N)=O)CC3)cc(=O)oc2c1C	inactive
CCc1c(C)nc2ncnn2c1N1CCCC(C(=O)NCc2cccs2)C1 (stereo not given)	inconclusive [inhibitor, single point]
COc1cc(NS(=O)(=O)c2ccc(C)c(C)c2)c(OC)cc1Cl	inactive
CC1(C)C(=O)OC(C(=O)c2ccccc2)C2(CCCCC2)C1=O (stereo not given)	inconclusive [inhibitor, single point]
O=C(CCl)N=c1sccn1Cc1cccc2ccccc12	inconclusive [inhibitor, single point]
Cc1cc(N/N=C/c2ccncc2)c([N+](=O)[O-])cc1[N+](=O)[O-]	inactive
CCS(=O)(=O)Nc1ccc(Cc2ccncc2)cc1	inconclusive [inhibitor, single point]
Cc1ccc(C(=O)C2CCN(S(=O)(=O)c3ccccc3C(=O)O)CC2)cc1	inconclusive [inhibitor, single point]
Cc1cccc(CN2CCN(Cc3nc4c(s3)CCCC4)CC2CCO)n1 (stereo not given)	inactive
CCCCNC(=O)C12CCC(C)(C(=O)C1Br)C2(C)C (stereo not given)	inconclusive [inhibitor, single point]
COC(C(=O)Nc1ccc(Br)cc1F)c1ccccc1 (stereo not given)	inconclusive [inhibitor, single point]
COc1ccc(/C=C(/C(=O)Nc2ccccc2C(=O)N2CCCC2)c2ccccc2)cc1	inactive
COc1cccc(C2=CC(c3ccccc3)n3ncnc3N2)c1 (stereo not given)	inactive
CC(=O)c1ccc(OCc2ccc(C(=O)c3ccccc3)cc2)cc1	inconclusive [inhibitor, partial curve]
COc1cc(CNc2ccc(C)c(C)c2)cc(OC)c1OC	inactive
Cc1ccc(Cc2c[nH]c(=S)s2)cc1	inconclusive [inhibitor, single point]
O=C(NC(=S)Nc1ccc(S(=O)(=O)N2CCCCC2)cc1)c1cccs1	inconclusive [inhibitor, single point]
